Laboratory results as given in PubChem BioAssay AID485344 (National Center for Advancing Translational Sciences (NCATS), 2010).
The campaign covered roughly 340,000 compounds. About 6,900 (2%) were called active. No stated cut-off is given here; in the data, active means inhibition above about 30%; inactive means below that, where a call was filed. This is a selection; strong and weak results do not stand in their true shares. The source gives no active or inactive call for entries shown without one.

Each compound was assayed against D(2) dopamine receptor (Homo sapiens) (UniProt P14416) (assay: HTS Assay for Allosteric Antagonists of the Human D2 Dopamine Receptor: Primary Screen for Antagonists). Conditions: HEK293 TREx D2 cells, calcium flux, dopamine EC80; at 10 µM; stronger effect = higher value.
How it was run: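 Inhibition of EC80 dopamine-driven calcium flux, recorded kinetically, defines activity here; cells are a tetracycline-induced HEK293 T-REx line expressing force-coupled D2.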
Further: 0% is about no effect.

Sequence of UniProt P14416 (P14416 whole entry, looked up): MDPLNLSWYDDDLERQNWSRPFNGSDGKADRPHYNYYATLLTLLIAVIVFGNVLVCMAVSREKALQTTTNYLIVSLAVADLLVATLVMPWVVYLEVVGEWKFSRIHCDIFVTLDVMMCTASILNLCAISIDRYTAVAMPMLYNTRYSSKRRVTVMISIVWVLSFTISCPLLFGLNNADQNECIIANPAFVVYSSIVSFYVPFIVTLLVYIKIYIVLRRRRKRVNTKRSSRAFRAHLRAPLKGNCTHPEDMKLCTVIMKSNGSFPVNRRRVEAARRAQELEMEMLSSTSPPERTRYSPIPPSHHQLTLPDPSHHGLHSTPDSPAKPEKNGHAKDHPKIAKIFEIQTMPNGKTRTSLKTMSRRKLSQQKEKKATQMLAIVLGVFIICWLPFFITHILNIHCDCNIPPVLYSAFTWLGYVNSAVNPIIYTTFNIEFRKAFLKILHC

| Structure (SMILES) | inhibition |
| --- | --- |
| Cc1cccc(NC(=O)c2ccc(F)c(S(=O)(=O)N3CCN(c4ccc(F)cc4)CC3)c2)c1 | 8.02% |
| CC(=O)c1c(OCC(=O)O)ccc2c(C)cc(=O)oc12 | active: 46.8% |
| Cc1ccc2nc(N(Cc3cccnc3)C(=O)CCc3ccccc3)sc2c1 | 26.5% |
| Clc1c(Cl)c(Cl)c2n[nH]nc2c1Cl | active: 38.1% |
| CC(=O)c1ccc(NC(=O)c2nn(C)c3c2CS(=O)(=O)c2ccccc2-3)cc1 | 23.1% |
| COc1ccc(-c2nc3n(n2)C(c2cccc(C)c2)C(C(N)=O)=C(C)N3)cc1OC (stereo unspecified) | 8.27% |
| Cc1cc(-c2ccc(C)c(S(=O)(=O)N(C(C)C)C3CCCCC3)c2)on1 | -0.274% |
| CCOC(=O)c1ccc(CN(Cc2ccc(Cl)cc2Cl)S(=O)(=O)c2cccc(Cl)c2)cc1 | 3.46% |
| CC(=O)Nc1cccc(C(=O)/C=C/c2ccc(N(C)C)cc2)c1 | active: 35% |
| CC1(C)O[C@H]2[C@@H](O1)[C@@H](C(=O)Nc1cc(F)ccc1F)O[C@@H]1OC(C)(C)O[C@@H]12 | 2.66% |
| O=C(c1cc2ccccc2o1)N1CCN(CCOc2ccccc2)CC1 | active: 96.2% |
| O=C(O)CCSc1nnc(-c2ccc(Cl)cc2Cl)o1 | 1.16% |
| Cc1ccc(-c2cn3c(n2)sc2cc(C(=O)NC4CCCCCC4)ccc23)c(C)c1 | 5.29% |
| Cc1oc2c(c(C)cc3oc(=O)c(CC(=O)NCCc4ccc(Cl)cc4)c(C)c32)c1C | -9.83% |
| Cc1cccc(NC(c2nnc(-c3ccccc3)o2)c2ccc(F)cc2Cl)c1C (stereo unspecified) | 13.1% |
| Cc1ccc(Cl)cc1N1CCN(C(=O)C2CCN(S(=O)(=O)c3c(C)noc3/C=C/c3ccccc3F)CC2)CC1 | -0.957% |
| CC(C)c1nn2c(=O)cc(COC(=O)COc3ccccc3F)nc2s1 | -11.6% |
| O=C(NCc1ccccc1)c1ccc2c(c1)sc1nc(-c3ccc(F)cc3)cn12 | -6.1% |
| Cc1ccc(C)c(N2CCN(CCCNC(=O)c3ccc4nc(C(C)C)oc4c3)CC2)c1 | 15.5% |
| COc1cccc(-c2cn3c(n2)sc2cc(C(=O)NCCc4ccccc4)ccc23)c1 | -3.64% |
| Cc1nn(C)c2c1c(C(F)(F)F)cc(=O)n2C(C)C(=O)NCc1ccccc1 (stereo unspecified) | 16% |
| CCOCCc1nn2c(=O)cc(COC(=O)c3ccc4c(c3)OCO4)nc2s1 | -1.05% |
| CCCC12CN3CCN(CC(C3)/C1=N\NC(=O)Nc1ccccc1)C2 | active: 53.9% |
| Cc1ccc(CNc2nc3nc(C)c(Cl)c(C)n3n2)cc1 | -0.684% |

| Structure (SMILES) | inhibition |
| --- | --- |
| O=S(=O)(c1ccc(Br)cc1)N1CCn2cccc2C1c1ccc(Br)cc1 (stereo unspecified) | 14.5% |
| COc1ccc(-c2nc(CS(=O)CC(=O)NCc3ccccc3Cl)c(C)o2)cc1OC (stereo unspecified) | -1.7% |
| Cn1c(C(=O)Nc2cccc(Cl)c2)cc2c(=O)n(C)c3ccccc3c21 | 10.3% |
| O=[N+]([O-])c1ccc(OCCN2CCNCC2)cc1 | active: 31.8% |
| CCCn1c2ccc(C)cc2c2nnc(SCCN3CCCCC3)nc21 | 16.5% |
| O=C(CN1C(=O)CC(c2ccco2)Sc2ccccc21)Nc1ccc(OC(F)(F)F)cc1 (stereo unspecified) | -13.8% |
| Cc1ccc(S(=O)(=O)Nc2nc3n(n2)C(c2ccc(Cl)cc2)C=C(c2ccccc2)N3)cc1 (stereo unspecified) | 2.31% |
| CCOc1ccc(C2CC(=O)c3c([nH]c(C(=O)OC4CCCCCC4)c3C)C2)cc1 (stereo unspecified) | 17.9% |
| COc1ccc(C(=O)NCC(c2cccs2)S(=O)(=O)c2cccs2)cc1 (stereo unspecified) | 4.07% |
| Cc1ccc(NC(=O)[C@H](Cc2ccccc2)N2Cc3ccccc3C2=O)cc1F | 7.6% |
| CC1=C(C(=O)OC2CCCCCC2)C(c2c(Cl)cccc2Cl)CC(=O)N1 (stereo unspecified) | 6.4% |
| CCc1ccccc1NC(=O)Cn1c(=O)oc2ccccc21 | 11.7% |
| CCOc1ccc(CCNC(c2nnc(-c3ccccc3)o2)c2ccccc2Cl)cc1OCC (stereo unspecified) | -3.2% |
| COC(=O)c1ccc(CSc2nc3ccncc3n2Cc2ccc(F)cc2)cc1 | -0.52% |
| COCC(C)Nc1ncnc2c1cnn2-c1cccc(Cl)c1 (stereo unspecified) | 3.51% |
| COc1ccc(C(=O)Oc2ccc(C3NC(=O)c4c(sc5c4CCN(C)C5)N3)cc2OC)cc1 (stereo unspecified) | 6.24% |
| COc1ccc(NC(=O)c2ccc3oc(=O)c(S(=O)(=O)c4ccc(F)cc4)cc3c2)c(OC)c1 | 11.3% |
| CC(C)c1nc2sc3c(N4CCCCC4)ncnc3c2c2c1CCCC2 | 1.81% |
| COc1ccc(CC(=O)Nc2ccc(-c3nc4ccccc4s3)c(C)c2)cc1 | 12% |
| CCOC(=O)c1cc(CC)sc1NC(=O)COc1ccccc1C | -2.25% |
| COc1ccc(C(=O)NCC(c2ccc3c(c2)OCO3)N2CCN(C)CC2)cc1OC (stereo unspecified) | 11.7% |
| Cc1cc(NC(=O)CN2CCC(O)CC2)nc2c1c(=O)oc1ccccc12 | -2.37% |
| CCN1CCN(c2ncnc3c2cnn3-c2ccc(F)cc2)CC1 | 15.4% |
| CCn1c(=O)n(CC2CCC(C(=O)NC(C)C)CC2)c(=O)c2sccc21 (stereo unspecified) | 7.25% |

| Structure (SMILES) | inhibition |
| --- | --- |
| COc1ccc(NC(=O)CSc2c(C(C)C)cnc3c2c(=O)n(C)c(=O)n3C)c(OC)c1 | -15.4% |
| CC(C)CNc1cc(NC2CCCCC2)c2c3c(onc13)-c1ccccc1C2=O | 7.85% |
| Cc1ccc(Cl)cc1N1CCN(C(=O)c2cn(C)c3ccc(S(=O)(=O)N4CCCCC4)cc3c2=O)CC1 | 1.98% |
| O=S(=O)(Nc1cccc(-c2ccc(N3CCCCC3)nn2)c1)c1ccc(F)cc1F | -7.24% |
| COC(=O)CN1C(c2ccc(Cl)cc2)=Nc2ccc(Cl)cc2C1c1ccccc1 (stereo unspecified) | active: 48.9% |
| COc1cccc(CNCc2c(C(=O)O)c(C)n(Cc3ccc(F)cc3Cl)c2C)c1OC | 16.6% |
| CCSc1nc2sc3c(c2c(=O)n1-c1ccc(C)cc1)CCCC3 | 13.1% |
| O=C(CC1N=C2c3ccccc3N=C(SCc3cccc(F)c3)N2C1=O)NC1CCCCC1 (stereo unspecified) | 0.0924% |
| CCC(C(=O)NCCc1ccc(SC)cc1)n1nc(C)c2c(C)n(-c3ccc(C)cc3)nc2c1=O (stereo unspecified) | -6.66% |
| CCS(=O)(=O)N1Cc2ccccc2CC1C(=O)N(C)CC(=O)Nc1cccc(F)c1 (stereo unspecified) | active: 40.5% |
| COc1cc(C2CC(=O)N(CC(=O)Nc3ccccc3F)c3ccccc3S2)cc(OC)c1OC (stereo unspecified) | -9.4% |
| O=C(Nc1ccc(F)cc1F)c1cc(-c2ccc3c(c2)OCO3)on1 | -3.99% |
| Cc1ccc(-n2nc(CO)c(C(=O)NC(C)c3ccccc3)n2)cc1C (stereo unspecified) | 14.1% |
| COC(=O)c1sc2ccccc2c1S(=O)(=O)N1CCN(c2ccc(C(C)=O)cc2)CC1 | 0.614% |
| Cc1ccc(CCNC(=O)c2ccc(CSc3nc4ccncc4n3Cc3ccc(F)cc3)cc2)cc1 | 14.1% |
| COC(=O)c1ccccc1NC(=O)CCc1c(C)nc2cc(-c3ccc(Cl)cc3)nn2c1C | -2.09% |
| Cc1cccc(OCC(=O)Nc2cccc(-c3nc4ccccc4s3)c2)c1 | -2.5% |
| CC(=O)c1cc(-c2ccc(F)cc2)n(CCC(=O)NC2CCCCC2)c1C | -0.826% |
| COc1cc(NC(=O)c2cc3cc4cc(OC)ccc4nc3o2)cc(OC)c1 | -1.21% |
| Fc1ccc(Cc2cn3cc(-c4ccc(F)cc4)nc3s2)cc1 | 13% |
| O=C(Cn1c(=O)n(Cc2ccco2)c(=O)c2sc3ccccc3c21)Nc1ccccc1C(F)(F)F | 9.74% |
| CCOc1ccccc1NC(=O)c1ccc(C(=O)Nc2ccccc2OCC)cc1 | -6.71% |
| Cc1nc2nc(C)c(CCC(=O)NCc3cccc(Cl)c3)c(C)n2n1 | -13.6% |
| COc1ccc(C2=C(C(C)=O)Sc3nnc(-c4ccccc4)n3N2C(C)=O)cc1 | 22.9% |

| Structure (SMILES) | inhibition |
| --- | --- |
| CC(=O)NCCNC(=O)c1ccc2c(=O)n(CCc3ccccc3)c(=O)[nH]c2c1 | 7.67% |
| CSc1ncc(C(=O)N2CCN(c3ccc(Cl)cc3)CC2)c(C)n1 | 25.8% |
| CCc1nn(CC(=O)NCCCN2CCN(C)CC2)c(=O)c2cc3occc3n12 | 8.07% |
| COc1ccc(C(=O)c2c(N)c(-c3nc(-c4ccccc4)cs3)c3ccccn23)cc1 | -2.02% |
| COc1ccc(S(=O)(=O)NCC(c2ccc3c(c2)OCO3)N2CCN(c3ccccc3)CC2)cc1 (stereo unspecified) | active: 72.8% |
| COc1ccc(C)cc1NC(=O)c1oc2ccc(S(=O)(=O)N3CCOCC3)cc2c1C | -16.6% |
| CSc1cccc(NC(=O)CC(c2ccc(F)cc2)N2Cc3ccccc3C2=O)c1 (stereo unspecified) | -15.1% |
| COc1ccc(OC)c(NC(=O)CSC2=Nc3ccccc3C3=NC(CCC(=O)NC4CCCCC4)C(=O)N23)c1 (stereo unspecified) | -24.5% |
| COC(=O)c1c(NC(=O)COc2ccc(Cl)cc2C)sc2c1CCCCC2 | -7.81% |
| O=[N+]([O-])c1ccc(CN2CCN(c3ncccn3)CC2)cc1 | active: 85% |
| COc1ccc(N2CCN(C(=O)CCc3c(C)nc4cc(-c5cccc(F)c5)nn4c3C)CC2)cc1 | 26.6% |
| Cc1ccccc1C(=O)N1CCCCC1CCN1CCCCC1 (stereo unspecified) | -12.6% |
| Cc1ccc(/C=C/c2nc3ccccc3n2S(=O)(=O)c2ccc(Br)cc2)cc1 | 6.18% |
| CC(=O)N1CCc2c(sc3c2c(=O)n(-c2ccccc2)c(=O)n3Cc2cccc(C(F)(F)F)c2)C1 | -5.03% |
| CCOC(=O)c1cnc2c(ccc3ccccc32)c1Nc1ccc(OC)cc1OC | -2.03% |
| COc1cccc(N=C2SC(C(=O)Nc3cccc(Cl)c3)CC(=O)N2C)c1 (stereo unspecified) | -17.7% |
| COc1cc(C2=Nc3ccc(Br)cc3C(c3ccccc3)N2CC(=O)NN)cc(OC)c1OC (stereo unspecified) | active: 86.1% |
| CCCn1c2ccccc2c2cnn(CC(=O)NC3CCCC(C)C3C)c(=O)c21 (stereo unspecified) | active: 34.8% |
| Cc1ccc(CCNS(=O)(=O)c2ccc3c(c2)CCN3C(=O)CCC(=O)O)cc1 | 14.1% |
| O=C(NCCNC1CCC(c2ccccc2)CC1)c1cccs1 (stereo unspecified) | active: 48.2% |
| CCc1ccc(NC(=O)CCc2c(C)n(C)c3cc(-c4ccccc4C)nn3c2=O)cc1 | -4.88% |
| Cc1cccc(N2CCN(C(=O)CCCn3ncn4c(cc5occc54)c3=O)CC2)c1C | 5.71% |
| Cn1c(=O)n(C)c2cc(N3CCOCC3)c(NS(=O)(=O)c3ccc(Br)cc3)cc21 | 0.283% |
| O=C(NCC(c1cccnc1)N1CCc2ccccc2C1)C(=O)Nc1cccc(Cl)c1 (stereo unspecified) | 8.06% |
